In all, about 43,000 compounds went through this assay and about 200 (0.47%) were called active. About 12% were inconclusive and are not listed. Calls follow the shape of the dose curve; as a rule, active = well fitted cell-killing curve with a large enough effect; inconclusive = small, poorly fitted or top-dose-only effect, or effect the other way; inactive = flat fitted curve, though single readings scatter. The list shows a part of the results.
assay: Cell viability qHTS assay in S16 Pmp22-F2sN cells; conditions: S16 Pmp22-F2sN Schwann cells (luciferase reporters placed in the Pmp22 gene) viability, CellTiter-Glo, 24 h; series mostly up to 57.5 µM; activity change, negative = cytotoxicity: at the top concentration; also: nearly all actives have a fitted effect of over 65% in size
Outline: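 Rat S16 Schwann reporter line, 24 h treatment with library compounds delivered at 23 nL per well. Cell viability by CellTiter-Glo luminescence.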
% is scaled to controls: 0 for no effect and ±100 for the full control effect.

SMILES | activity change, negative = cytotoxicity
CCc1ccc2c(c1)c(=O)c(S(=O)(=O)c1ccc(Cl)cc1)cn2CC | inactive: -6.82%
COc1ccc(OCC(=O)Nc2cc(-c3ccccc3F)nn2-c2ccccc2)cc1 | inactive: -29.2%
CCc1ccc(CNC(=O)c2cc3cc(S(=O)(=O)N4CCCCC4)ccc3n2C)cc1 | inactive: -15.7%
Cc1ccc(S(=O)(=O)NCC2CCC(C(=O)NCc3ccc(F)cc3)CC2)cc1 (stereo not given) | inactive: 0.183%
CCCn1ccc2c(OCC(=O)Nc3cc(C)ccc3C)cccc2c1=O | inactive: -22.2%
Nc1c(C(=O)NCc2ccc(Cl)cc2Cl)nnn1Cc1ccc(Br)cc1 | inactive: -9.56%
Cc1ccc2c(=O)cc(C(=O)Nc3ccc(S(=O)(=O)N4CCC(C)CC4)cc3)oc2c1C | inactive: -2.21%
COCCCn1c(=N)c(C(=O)NCC2CCCO2)cc2c(=O)n3cc(C)ccc3nc21 (stereo not given) | inactive: 26%
Cc1ccc(Nc2c(-c3ccc(N(C)C)cc3)nc3nc[nH]n23)cc1 | inactive: -4.43%
COc1ccc(-c2nc3ccccc3n3c(-c4cccc(C)c4)c4c(=O)n(C)c(=O)n(C)c4c23)cc1 | inactive: 7.12%
CSc1nc(=O)c2c(n1C)NC(=O)CC2c1ccccc1OC(C)C (stereo not given) | inactive: -2.01%
O=C(Cc1ccccc1)Nc1sc2c(c1C(=O)Nc1ccccc1)CCCCC2 | inactive: -12.3%
COc1cc(C2CC(=O)Nc3c2c(C)nn3-c2nc(C)cc(C)n2)cc(OC)c1O (stereo not given) | inactive: -1.78%
COc1cccc(-c2nn3c(=O)cc(CN4CCN(S(=O)(=O)c5ccc(C)cc5)CC4)nc3s2)c1 | inactive: 15.1%
Cc1ccc(CSc2nnc(-n3c(=O)c(C#N)cc4c(=O)n5cccc(C)c5nc43)s2)cc1 | inactive: 3.21%
CCN1CCN(C(c2ccc(OC)cc2)c2c(O)cc(C)n(Cc3ccco3)c2=O)CC1 (stereo not given) | inactive: -6.69%
CCN(CC)c1nc2c(-c3cccc(Br)c3)nnn2c2ccccc12 | inactive: 7.46%
COc1cccc(NC(=O)C2CCN(S(=O)(=O)c3cccc4nonc34)CC2)c1 | inactive: -0.361%
COc1cccc(NC(=O)Cn2c(=O)cc(C)c3c(C)nn(-c4cccc(F)c4)c32)c1 | inactive: -10.2%
CC1CCCCN1C(=O)Cn1c(=O)n(-c2ccc(Cl)cc2)c(=O)c2c3c(sc21)CCC3 (stereo not given) | inactive: -1.31%

SMILES | activity change, negative = cytotoxicity
COc1cc(NS(=O)(=O)c2cnc(N)nc2)cc(OC)c1 | inactive: 2.48%
CCOc1ccc(/C=C/C(=O)Nc2sc3c(c2C(=O)OC)C(C(=O)OC)CC3)cc1 (stereo not given) | inactive: -10%
COC(=O)c1ccc(NC(=O)CSc2nc(C)cc(C)c2C(=O)Nc2ccccc2)cc1 | inactive: 2.49%
COc1ccc(N2CCN(C(=O)c3cccc(-n4c(C)nc5cccnc54)c3)CC2)cc1 | inactive: -17.7%
CCc1cccc(NC(=O)c2cn3c4c(ccc(Cl)c4c2=O)OC(C)C3)c1 (stereo not given) | inactive: -1.11%
CCCNS(=O)(=O)c1ccc2nc(NC(=O)c3ccc(F)cc3)sc2c1 | inactive: 4.57%
O=C(NCCC1=CCCCC1)c1ccc2c(c1)N(Cc1ccccc1F)C(=O)c1ccccc1S2=O (stereo not given) | inactive: -0.758%
CCn1nnc2cc(C(=O)Nc3ccc(Cl)cc3C)ccc21 | inactive: -5.23%
CCc1cccc(-n2c(=O)c3cccnc3n2CC(=O)NCc2ccccc2)c1 | inactive: 4.46%
CCOC(=O)c1cc(C)n(CC2CCC(C(=O)Nc3ccc(C(C)=O)cc3)CC2)c1C (stereo not given) | inactive: -15.4%
CCOc1ccccc1Nc1sc(C(=O)c2ccccc2)c(N)c1C(=O)Nc1ccccc1 | inactive: -29.1%
CCc1ccc(NC(=O)Cn2c(=O)n(CCCCC(=O)NCc3ccc4c(c3)OCO4)c(=O)c3ccccc32)cc1 | inactive: 1.97%
CC(=O)c1cc(-c2ccccc2)n(CCC(=O)NCc2ccc(C)cc2)c1C | inactive: 0.486%
CCOc1ccccc1NC(=O)c1ccc2c(Cl)c3c(nc2c1)CCC3 | inactive: 7.28%
CCOc1ccccc1CNc1ccc2cc(S(=O)(=O)N3CCC(C)CC3)ccc2n1 | inactive: -21.4%
COc1ccc(-c2nn3c(=O)cc(CN4CCN(C(=O)c5ccc(OC)c(OC)c5)CC4)nc3s2)cc1 | inactive: 18%
COc1ccc(-c2noc(N(c3nc(-c4ccc(OC)c(OC)c4)no3)c3ccccc3OC)n2)cc1OC | inactive: 0.243%
CC(=O)c1cccc(NC(=O)c2nc(-c3ccccc3)n(-c3cccc(Cl)c3)n2)c1 | inactive: -11%
CCc1ccc(NC(=O)C(=O)NCC(c2cccnc2)N2CCN(c3ccc(F)cc3)CC2)cc1 (stereo not given) | inactive: -16.3%
Cc1ccc(C(=O)Nc2ccc(S(=O)(=O)N3CCC(c4nc5ccccc5s4)CC3)cc2)cc1 | inactive: 8.45%

SMILES | activity change, negative = cytotoxicity
Cc1ccc(NC(=O)c2nc(S(C)(=O)=O)ncc2N(Cc2ccco2)Cc2cccs2)c(C)c1 | inactive: -19.3%
Cc1ccc(NC(=O)CSc2nc(=O)n(CCN3CCOCC3)c3c2CCC3)c(C)c1 | inactive: -2.96%
Cc1ccc(OCCCCn2nnc3sc4c(c3c2=O)CCCC4)cc1 | inactive: 6.81%
CCCCn1cc(S(=O)(=O)c2ccc(OC)cc2)c(=O)c2cc(CC)ccc21 | inactive: -0.672%
CNC(=O)C1CCC(Cn2c(=O)c3sccc3n(CC(=O)Nc3ccc(C)c(C)c3)c2=O)CC1 (stereo not given) | inactive: -3.21%
O=S(=O)(c1ccccc1)c1nnn2c1nc(NC1CCCCC1)c1sccc12 | inactive: -0.431%
COc1ccc(CCNC(=O)C2CCC(CNS(=O)(=O)c3ccc(C)cc3)CC2)cc1OC (stereo not given) | inactive: 13.4%
Cc1ccc(CN(C(=O)c2ccccc2)c2ccccn2)o1 | inactive: 0.566%
O=C(O)CCCCn1c(SCC(=O)Nc2ccccc2C(F)(F)F)nc2ccsc2c1=O | inactive: 8.32%
Cc1ccc(Cl)cc1NC(=O)Nc1nnc(N(C)Cc2ccccc2)s1 | inactive: -1.35%
Cn1c(=O)c2c(SCC(=O)Nc3ccccc3C(F)(F)F)nc(C3CCCC3)nc2n(C)c1=O | inactive: 3.64%
COc1ccc(-c2cc(C)no2)cc1S(=O)(=O)N1CCc2ccccc21 | inactive: 0.566%
CCCC(O)c1nc2ccccc2n1Cc1ccccc1OC (stereo not given) | inactive: -7.83%
COc1cc(NC(=O)CN2c3ccccc3S(=O)(=O)c3ccccc32)cc(OC)c1 | inactive: 5.09%
Cc1ccc(C(=O)CSc2nc(-c3ccccc3)nc3c2CCCC3)c(C)c1 | inactive: 0.824%
Cc1cccc(C(C)C)c1NC(=O)C1CCCN1S(=O)(=O)c1cccc2nsnc12 (stereo not given) | inactive: -7.62%
COCCNC(=O)CSc1nc(-c2cc(OC)c(OC)c(OC)c2)[nH]c1-c1ccc(Cl)cc1 | inactive: -24.6%
CCOCCCn1c(SCC(=O)OCC)nc2c(sc3ccccc32)c1=O | inactive: -11.3%
CCC1CN(C(=O)NCc2ccc(C)cc2)c2ccccc2O1 (stereo not given) | inactive: 3.11%
CC(C)c1ccc(N2C(=O)CS(=O)(=O)C23C(=O)N(Cc2cccc(F)c2)c2ccccc23)cc1 (stereo not given) | inactive: -0.604%
